# Assay results taken from ChEMBL document CHEMBL1961873, “Compounds: GSK PKIS; Assays: Nanosyn kinase panel” (2012).
# The entries are a selection whose mix differs from that of the whole data set.
# Biological target: T1, Protein kinase C iota type (Homo sapiens) (UniProt P41743)
# T1 sequence (whole entry): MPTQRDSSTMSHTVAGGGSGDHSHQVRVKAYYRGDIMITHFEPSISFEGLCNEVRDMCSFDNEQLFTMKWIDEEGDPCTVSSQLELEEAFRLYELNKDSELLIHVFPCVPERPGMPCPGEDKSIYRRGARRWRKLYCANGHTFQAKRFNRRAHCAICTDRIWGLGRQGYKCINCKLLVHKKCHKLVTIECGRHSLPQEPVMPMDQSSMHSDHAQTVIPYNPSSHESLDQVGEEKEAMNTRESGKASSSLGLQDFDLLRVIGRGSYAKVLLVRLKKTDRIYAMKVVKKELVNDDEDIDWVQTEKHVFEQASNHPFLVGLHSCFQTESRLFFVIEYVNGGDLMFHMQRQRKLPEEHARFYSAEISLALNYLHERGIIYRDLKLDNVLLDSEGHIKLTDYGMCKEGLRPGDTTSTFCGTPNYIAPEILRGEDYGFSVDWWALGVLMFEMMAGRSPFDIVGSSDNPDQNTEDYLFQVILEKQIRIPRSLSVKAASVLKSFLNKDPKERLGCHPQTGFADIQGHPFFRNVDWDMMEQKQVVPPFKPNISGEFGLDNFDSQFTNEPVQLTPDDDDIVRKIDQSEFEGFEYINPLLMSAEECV
# Details: at 0.1 µM
row,Compound,inhibition [%]
1,O=C1NC(=O)C(c2ccccc2Cl)=C1Nc1cc(Cl)c(O)c(Cl)c1,2.8
2,Fc1ccc(-c2ncn(C3CCNCC3)c2-c2ccnc(Oc3cccc(F)c3)n2)cc1,2.67
3,O=C1NC(=O)C(c2cccc([N+](=O)[O-])c2)=C1Nc1cc(Cl)c(O)c(Cl)c1,-0.11
4,Fc1ccc(Oc2nccc(-c3c(-c4ccc(F)cc4)ncn3C3CCNCC3)n2)cc1,1.16
5,CC(C)(C)c1ccc(Oc2nccc(-c3c(-c4ccc(F)cc4)ncn3C3CCNCC3)n2)cc1,2.41
6,COc1ccccc1Oc1nccc(-c2c(-c3ccc(F)cc3)ncn2C2CCNCC2)n1,3.32
7,Cc1cccc(Oc2nccc(-c3c(-c4ccc(F)cc4)ncn3C3CCNCC3)n2)c1C,3.05
8,Fc1ccc(-c2ncn(C3CCNCC3)c2-c2ccnc(Oc3cccc(C(F)(F)F)c3)n2)cc1,4.13
9,Fc1ccc(-c2ncn(C3CCNCC3)c2-c2ccnc(Oc3ccc(Cl)cc3)n2)cc1,1.87
10,CS(=O)(=O)c1ccc(Oc2nccc(-c3c(-c4ccc(F)cc4)ncn3C3CCNCC3)n2)cc1,2.14
11,NC(=O)CCc1ccccc1Oc1nccc(-c2c(-c3ccc(F)cc3)ncn2C2CCNCC2)n1,-0.01
12,O=C1NC(=O)C(c2ccccc2)=C1Nc1ccccc1,2.73
13,COc1ccccc1C1=C(Nc2ccccc2)C(=O)NC1=O,1.03
14,O=C(O)c1ccc(Oc2nccc(-c3c(-c4ccc(F)cc4)ncn3C3CCNCC3)n2)cc1,1.53

# Biological target: T1, Protein kinase C iota type (Homo sapiens)
# Details: at 1 µM
row,Compound,inhibition [%]
1,O=C1NC(=O)C(c2ccccc2Cl)=C1Nc1cc(Cl)c(O)c(Cl)c1,0.09
2,Fc1ccc(-c2ncn(C3CCNCC3)c2-c2ccnc(Oc3cccc(F)c3)n2)cc1,2.89
3,O=C1NC(=O)C(c2cccc([N+](=O)[O-])c2)=C1Nc1cc(Cl)c(O)c(Cl)c1,-1.31
4,Fc1ccc(Oc2nccc(-c3c(-c4ccc(F)cc4)ncn3C3CCNCC3)n2)cc1,1.53
5,CC(C)(C)c1ccc(Oc2nccc(-c3c(-c4ccc(F)cc4)ncn3C3CCNCC3)n2)cc1,2.2
6,COc1ccccc1Oc1nccc(-c2c(-c3ccc(F)cc3)ncn2C2CCNCC2)n1,3.07
7,Cc1cccc(Oc2nccc(-c3c(-c4ccc(F)cc4)ncn3C3CCNCC3)n2)c1C,2.72
8,Fc1ccc(-c2ncn(C3CCNCC3)c2-c2ccnc(Oc3cccc(C(F)(F)F)c3)n2)cc1,3.51
9,Fc1ccc(-c2ncn(C3CCNCC3)c2-c2ccnc(Oc3ccc(Cl)cc3)n2)cc1,1.94
10,CS(=O)(=O)c1ccc(Oc2nccc(-c3c(-c4ccc(F)cc4)ncn3C3CCNCC3)n2)cc1,1.77
11,NC(=O)CCc1ccccc1Oc1nccc(-c2c(-c3ccc(F)cc3)ncn2C2CCNCC2)n1,0.33
12,O=C1NC(=O)C(c2ccccc2)=C1Nc1ccccc1,2.63
13,COc1ccccc1C1=C(Nc2ccccc2)C(=O)NC1=O,0.39
14,O=C(O)c1ccc(Oc2nccc(-c3c(-c4ccc(F)cc4)ncn3C3CCNCC3)n2)cc1,2.01
